# This is one part of the list.
# What was measured:
# Test in all cases: glycan array binding signal (z-score within array); higher = stronger binding
# Conditions in all cases: glycan notation: IUPAC condensed, linker removed; mutation: K348A
# [1] = target: GlcNAc(b1-6)GalNAc
# How it was run: (§1)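 From the Consortium for Functional Glycomics database, 3228 arrays were curated, keeping only those whose protein sequence was available. Binding is given as a within-array Z-score averaged across arrays sharing a protein sequence and across linkers. Negative Z-scores can be read as non-binding.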
# [2] = target: GlcNAc3Prop(b1-4)GlcNAc
# How it was run: as §1
# [3] = target: Kdn(a2-3)Gal(b1-3)GlcNAc
# How it was run: as §1
# [4] = target: Kdn(a2-3)Gal(b1-4)GlcNAc
# How it was run: as §1
# [5] = target: Man(a1-2)Man(a1-2)Man(a1-3)Man
# How it was run: as §1
# [6] = target: Man(a1-2)Man(a1-2)Man(a1-6)[Man(a1-3)]Man
# How it was run: as §1
# [7] = target: Man(a1-2)Man(a1-3)Man
# How it was run: as §1
# [8] = target: Man(a1-2)Man(a1-3)[Man(a1-2)Man(a1-6)]Man
# How it was run: as §1
# [9] = target: Man(a1-2)Man(a1-3)[Man(a1-2)Man(a1-6)]Man(a1-6)[Man(a1-2)Man(a1-2)Man(a1-3)]Man
# How it was run: as §1
# [10] = target: Man(a1-2)Man(a1-3)[Man(a1-2)Man(a1-6)]Man(a1-6)[Man(a1-2)Man(a1-2)Man(a1-3)]Man(b1-4)GlcNAc(b1-4)GlcNAc
# How it was run: as §1
# [11] = target: Man(a1-2)Man(a1-3)[Man(a1-6)]Man(a1-6)[Man(a1-2)Man(a1-3)]Man(b1-4)GlcNAc(b1-4)GlcNAc
# How it was run: as §1
# [12] = target: Man(a1-2)Man(a1-6)[Man(a1-3)]Man(a1-6)[Man(a1-2)Man(a1-2)Man(a1-3)]Man
# How it was run: as §1
# [13] = target: Man(a1-2)Man(a1-6)[Man(a1-3)]Man(a1-6)[Man(a1-2)Man(a1-2)Man(a1-3)]Man(b1-4)GlcNAc(b1-4)GlcNAc
# How it was run: as §1
# [14] = target: Man(a1-3)[Man(a1-6)]Man
# How it was run: as §1
# [15] = target: Man(a1-3)[Man(a1-6)]Man(a1-6)[Man(a1-2)Man(a1-3)]Man(b1-4)GlcNAc(b1-4)GlcNAc
# How it was run: as §1
# [16] = target: Man(a1-3)[Man(a1-6)]Man(a1-6)[Man(a1-3)]Man
# How it was run: as §1
# [17] = target: Man(a1-3)[Man(a1-6)]Man(a1-6)[Man(a1-3)]Man(b1-4)GlcNAc(b1-4)GlcNAc
# How it was run: as §1
# [18] = target: Man(a1-3)[Man(a1-6)]Man(b1-4)GlcNAc(b1-4)GlcNAc
# How it was run: as §1
# [19] = target: Man(a1-6)Man
# How it was run: as §1
# [20] = target: Man(b1-4)GlcNAc
# How it was run: as §1
# [21] = target: Neu5Ac(a2-3)Gal
# How it was run: as §1
# [22] = target: Neu5Ac(a2-3)Gal(b1-3)GalNAc
# How it was run: as §1
# [23] = target: Neu5Ac(a2-3)Gal(b1-3)GalNAc(b1-3)Gal(a1-4)Gal(b1-4)Glc
# How it was run: as §1
# [24] = target: Neu5Ac(a2-3)Gal(b1-3)GalNAc(b1-3)Gal(b1-4)GlcNAc
# How it was run: as §1
# [25] = target: Neu5Ac(a2-3)Gal(b1-3)GalNAc(b1-4)[Neu5Ac(a2-3)]Gal(b1-4)Glc
# How it was run: as §1
# [26] = target: Neu5Ac(a2-3)Gal(b1-3)GalNAc6S
# How it was run: as §1
# [27] = target: Neu5Ac(a2-3)Gal(b1-3)GlcNAc
# How it was run: as §1
# [28] = target: Neu5Ac(a2-3)Gal(b1-3)GlcNAc(b1-3)Gal(b1-3)GlcNAc
# How it was run: as §1
# [29] = target: Neu5Ac(a2-3)Gal(b1-3)GlcNAc6S
# How it was run: as §1
# [30] = target: Neu5Ac(a2-3)Gal(b1-3)[Fuc(a1-4)]GlcNAc
# How it was run: as §1
# [31] = target: Neu5Ac(a2-3)Gal(b1-3)[Fuc(a1-4)]GlcNAc(b1-3)Gal(b1-4)[Fuc(a1-3)]GlcNAc
# How it was run: as §1
# [32] = target: Neu5Ac(a2-3)Gal(b1-3)[Neu5Ac(a2-3)Gal(b1-4)]GlcNAc
# How it was run: as §1
# [33] = target: Neu5Ac(a2-3)Gal(b1-3)[Neu5Ac(a2-6)]GalNAc
# How it was run: as §1
# [34] = target: Neu5Ac(a2-3)Gal(b1-4)Glc
# How it was run: as §1
# [35] = target: Neu5Ac(a2-3)Gal(b1-4)GlcNAc
# How it was run: as §1
# [36] = target: Neu5Ac(a2-3)Gal(b1-4)GlcNAc(b1-2)Man(a1-3)[GlcNAc(b1-2)Man(b1-4)GlcNAc(b1-2)Man(a1-6)]Man(b1-4)GlcNAc(b1-4)GlcNAc
# How it was run: as §1
# [37] = target: Neu5Ac(a2-3)Gal(b1-4)GlcNAc(b1-2)Man(a1-3)[Neu5Ac(a2-6)Gal(b1-4)GlcNAc(b1-2)Man(a1-6)]Man(b1-4)GlcNAc(b1-4)GlcNAc
# How it was run: as §1
# [38] = target: Neu5Ac(a2-3)Gal(b1-4)GlcNAc(b1-3)Gal(b1-3)GlcNAc
# How it was run: as §1
# [39] = target: Neu5Ac(a2-3)Gal(b1-4)GlcNAc(b1-3)Gal(b1-4)GlcNAc
# How it was run: as §1
# [40] = target: Neu5Ac(a2-3)Gal(b1-4)GlcNAc(b1-3)Gal(b1-4)GlcNAc(b1-3)Gal(b1-4)GlcNAc
# How it was run: as §1
# [41] = target: Neu5Ac(a2-3)Gal(b1-4)GlcNAc(b1-3)Gal(b1-4)[Fuc(a1-3)]GlcNAc
# How it was run: as §1
# [42] = target: Neu5Ac(a2-3)Gal(b1-4)GlcNAc(b1-6)[Gal(b1-3)]GalNAc
# How it was run: as §1
# [43] = target: Neu5Ac(a2-3)Gal(b1-4)GlcNAc(b1-6)[Neu5Ac(a2-3)Gal(b1-3)]GalNAc
# How it was run: as §1
# [44] = target: Neu5Ac(a2-3)Gal(b1-4)GlcNAc6S
# How it was run: as §1
binder,measurement,setting,value
Surfactant Protein D (Human); Neck + Carbohydrate Recognition Domain (NCRD) (Homo sapiens) (protein) MLLFLLSALVLLTQPLGYLEAEMKTYSHRTMPSACTLVMCSSVESGLPGRDRDGREGPRGEKGDPGLPGAAGQAGMPGQAGPVGPKGDNGSVGEPGPKGDTGPSGPPGPPGVPGPAGREGALGKQGNIGPQGKPGPKGEAGPKGEVGAPGMQGSAGARGLAGPKGERGVPGERGVPGNTGAAGSAGAMGPQGSPGARGPPGLKGDKGIPGDKGAKGESGLPDVASLRQQVEALQGQVQHLQAAFSQYKKVELFPNGQSVGEKIFKTAQFVKPFTEAQLLCTQAGGQLASPRSAAENAALQQLVVAKNEAAFLSMTDSKTEGKFTYPTGESLVYSNWAPGEPNDDGGSEDCVEIFTNGKWNDRACGEARLVVCEF,glycan array binding signal (z-score),[1],-0.177
same,glycan array binding signal (z-score),[2],-0.144
same,glycan array binding signal (z-score),[3],-0.157
same,glycan array binding signal (z-score),[4],-0.156
same,glycan array binding signal (z-score),[5],2.46
same,glycan array binding signal (z-score),[6],8.57
same,glycan array binding signal (z-score),[7],1.49
same,glycan array binding signal (z-score),[8],7.38
same,glycan array binding signal (z-score),[9],8.69
same,glycan array binding signal (z-score),[10],-0.073
same,glycan array binding signal (z-score),[11],1.29
same,glycan array binding signal (z-score),[12],1.2
same,glycan array binding signal (z-score),[13],1.61
same,glycan array binding signal (z-score),[14],-0.179
same,glycan array binding signal (z-score),[15],6.04
same,glycan array binding signal (z-score),[16],6.52
same,glycan array binding signal (z-score),[17],0.736
same,glycan array binding signal (z-score),[18],-0.116
same,glycan array binding signal (z-score),[19],-0.153
same,glycan array binding signal (z-score),[20],-0.178
same,glycan array binding signal (z-score),[21],-0.173
same,glycan array binding signal (z-score),[22],-0.033
same,glycan array binding signal (z-score),[23],-0.169
same,glycan array binding signal (z-score),[24],-0.168
same,glycan array binding signal (z-score),[25],-0.156
same,glycan array binding signal (z-score),[26],-0.163
same,glycan array binding signal (z-score),[27],-0.134
same,glycan array binding signal (z-score),[28],-0.165
same,glycan array binding signal (z-score),[29],-0.17
same,glycan array binding signal (z-score),[30],-0.174
same,glycan array binding signal (z-score),[31],0.451
same,glycan array binding signal (z-score),[32],-0.178
same,glycan array binding signal (z-score),[33],-0.171
same,glycan array binding signal (z-score),[34],-0.17
same,glycan array binding signal (z-score),[35],-0.162
same,glycan array binding signal (z-score),[36],-0.159
same,glycan array binding signal (z-score),[37],-0.177
same,glycan array binding signal (z-score),[38],-0.17
same,glycan array binding signal (z-score),[39],-0.174
same,glycan array binding signal (z-score),[40],-0.147
same,glycan array binding signal (z-score),[41],-0.157
same,glycan array binding signal (z-score),[42],-0.172
same,glycan array binding signal (z-score),[43],-0.176
same,glycan array binding signal (z-score),[44],-0.155
